Source: publication PMC4336329 (PLoS ONE, 2015)
Hit rate of the full screen: of about 310,000 compounds, about 14,000 (4.5%) showed an effect of 50% or more. Effects have a minus sign here. This is one part of the list.

Biological target: human ether-à-go-go-related gene (hERG) potassium channel (human, UniProt Q12809)
Experiment: primary screen, population patch clamp on CHO cells stably expressing hERG
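Also: peak tail current of the secondary pulse compared with the same well before compound.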

human ether-à-go-go-related gene (hERG) potassium channel, sequence (Q12809 whole entry, looked up): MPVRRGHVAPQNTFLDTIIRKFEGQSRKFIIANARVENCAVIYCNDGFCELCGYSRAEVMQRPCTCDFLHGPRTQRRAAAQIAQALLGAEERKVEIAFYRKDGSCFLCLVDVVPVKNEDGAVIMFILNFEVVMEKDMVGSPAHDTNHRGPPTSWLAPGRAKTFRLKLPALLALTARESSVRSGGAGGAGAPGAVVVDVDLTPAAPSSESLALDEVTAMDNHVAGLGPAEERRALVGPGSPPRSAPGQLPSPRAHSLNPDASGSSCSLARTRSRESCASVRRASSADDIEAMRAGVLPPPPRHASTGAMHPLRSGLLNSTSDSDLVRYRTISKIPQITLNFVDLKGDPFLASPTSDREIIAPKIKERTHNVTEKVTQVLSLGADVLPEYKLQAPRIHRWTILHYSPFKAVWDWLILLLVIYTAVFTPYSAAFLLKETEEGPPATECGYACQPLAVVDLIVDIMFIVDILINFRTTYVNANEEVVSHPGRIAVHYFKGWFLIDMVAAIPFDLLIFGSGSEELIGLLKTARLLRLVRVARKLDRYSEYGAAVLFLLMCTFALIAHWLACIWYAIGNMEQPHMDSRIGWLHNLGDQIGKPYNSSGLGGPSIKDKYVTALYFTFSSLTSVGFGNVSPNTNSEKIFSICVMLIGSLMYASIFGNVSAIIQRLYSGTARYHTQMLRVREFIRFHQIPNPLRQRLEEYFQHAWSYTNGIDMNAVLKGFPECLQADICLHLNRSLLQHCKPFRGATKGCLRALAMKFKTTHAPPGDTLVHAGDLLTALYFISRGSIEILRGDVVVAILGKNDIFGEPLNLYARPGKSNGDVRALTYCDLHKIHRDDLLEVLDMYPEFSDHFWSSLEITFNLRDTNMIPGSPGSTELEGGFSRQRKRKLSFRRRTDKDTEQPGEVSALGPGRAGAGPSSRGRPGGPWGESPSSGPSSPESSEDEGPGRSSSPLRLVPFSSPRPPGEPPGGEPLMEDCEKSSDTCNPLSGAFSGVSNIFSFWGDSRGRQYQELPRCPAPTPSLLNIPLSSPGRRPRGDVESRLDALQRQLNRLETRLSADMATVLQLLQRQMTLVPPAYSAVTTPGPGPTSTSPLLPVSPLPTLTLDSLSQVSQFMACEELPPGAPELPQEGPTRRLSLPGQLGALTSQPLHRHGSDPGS

| SMILES | hERG current change (%, negative = inhibition) at 10uM [%] |
| --- | --- |
| O=C(CCSCCc1ccccn1)Nc1ccc(Br)cc1F | -44 |
| Cc1nn(-c2ccccc2)c(Cl)c1/C=C1\SC(=S)N(C)C1=O | 24.9 |
| CC(C)(C)c1ccc(C(=O)NNC(=O)Cc2cccc3ccccc23)cc1 | 5.88 |
| Clc1ccc(Nc2ncnc3c2cnn3-c2ccccc2)cc1 | -10.4 |
| O=C1C2CCCCN2C(=O)N1CCCCN1CCN(c2cccc(Cl)c2)CC1 (centres unmarked) | -60.6 |
| COc1ccc2[nH]c(C(=O)N/N=C/c3ccc(O)cc3O)cc2c1 | 17.4 |
| CCCn1c(N)c(N(CCOC)C(=O)c2cc(C)cc(C)c2)c(=O)[nH]c1=O | 16.4 |
| Cc1ccccc1/C=C/C12NC(=O)CN1c1ccccc1C2(C)C (centres unmarked) | -6.65 |
| O=C(N/N=C\c1ccc(Cl)cc1)C1=NOC2COC3(CCN(c4ccc([N+](=O)[O-])cc4)CC3)OCC12 (centres unmarked) | -21.9 |
| CC12CCC(=O)N1C(C(=O)Nc1nc3ccc(F)cc3s1)CS2 (centres unmarked) | -12.4 |
| CC(Sc1nc2ccccc2n1C)C(=O)Nc1ccc(N2CCOCC2)cc1 (centres unmarked) | -6.56 |
| COc1ccccc1NC(=S)NC(C)=O | 49 |
| Cc1ccc(OCCC(=O)Nc2ccc3c(c2)OCCCO3)cc1 | 0.463 |
| Cc1ccc(S(=O)(=O)N(C)C)cc1NC(=O)COC(=O)/C(=C/c1ccc(F)cc1)c1cccs1 | -1.8 |
| NC(=O)CSc1nc2ccccc2nc1SCC(N)=O | 7.83 |
| COc1ccc(-c2nnc(SCC(=O)NNC(=O)c3ccc(C)cc3)o2)cc1 | -4.63 |
| COc1ccc(OCCCC(=O)Nc2cc(S(=O)(=O)N3CCCCC3)ccc2C)cc1 | -9.42 |
| COc1ccc(O)c(-c2c(-c3ccc(Cl)cc3)n[nH]c2C)c1 | -23.6 |
| COc1ccccc1NC(=O)COc1ccc(CO)cc1Cl | 4.71 |
| COC(=O)Cn1c(CCS(=O)(=O)c2ccc(C)cc2)nc2ccccc21 | -7.62 |
| O=C(N/N=C\c1ccc(Cl)cc1)c1sccc1-n1cccc1 | -6.64 |
| COc1ccc(NC(=O)c2oc3ccccc3c2C)c(OC)c1 | 4.65 |
| COc1ccccc1N1CCN(C(=O)COc2ccc(S(=O)(=O)NC(C)C)cc2)CC1 | -4.64 |

| SMILES | hERG current change (%, negative = inhibition) at 10uM [%] |
| --- | --- |
| CC(C)C1CC(CCNCc2ccc3c(c2)OCO3)(c2ccccc2)CCO1.Cl (centres unmarked) | -35.3 |
| Cn1sc(NC(=O)c2ccc(Cl)cc2)nc1=O | 7.93 |
| O=C(NCCc1ccccc1)c1cc(-c2ccncc2)nc2ccc(S(=O)(=O)N3CCOCC3)cc12 | 18.6 |
| CCCCNC(=O)COC(=O)c1c2c(nc3ccccc13)CCC2 | -0.466 |
| COc1cc(Cl)ccc1OCc1cc(C(=O)N(C)Cc2cccc3cnccc23)no1 | -31.7 |
| O=C(Cn1nnc2ccccc21)OCC(=O)c1ccc(Cl)cc1 | -0.178 |
| CS(=O)(=O)c1nc(-c2ccc(Br)cc2)n[nH]1 | 15.3 |
| CCCCn1c(N)c(N(CCC(C)C)C(=O)CSc2nnc3ccccn23)c(=O)[nH]c1=O | 5.27 |
| CSc1ccccc1OCc1cc(C(=O)NCCC2CCCCO2)no1 (centres unmarked) | 9.84 |
| Cc1c(Cl)cccc1NC(=S)N1CCN(c2ccc([N+](=O)[O-])cn2)CC1 | 2.33 |
| Cc1onc(-c2c(F)cccc2Cl)c1C(=O)N=C(N)N1CCCC1 | 5.58 |
| COCCNc1c2c(nc3c(-c4ccccc4)c(C)nn13)CCCC2 | -1.34 |
| COC(=O)c1cc(CNC(=O)c2sccc2-c2ccccc2)ccc1OC | -8.92 |
| COc1cccc2c(=O)n(CC(=O)N3CCc4ccccc43)ccc12 | -11.1 |
| CCOc1ccc(OCC)c(NC(=O)C2CCN(S(=O)(=O)c3ccc4c(c3)CC(C)N4C(C)=O)CC2)c1 (centres unmarked) | -13.1 |
| Cc1ccccc1-c1nc(C(=O)NCC2CCCO2)cc2c1[nH]c1ccccc12 (centres unmarked) | -19.2 |
| CCC1=NN(C(=O)CCc2ccccc2)C(O)(C(F)(F)F)C1 (centres unmarked) | 12.7 |
| O=C(CSc1nnc(-c2ccncc2)n1Cc1ccco1)Nc1cccc(O)c1 | 0.158 |
| O=C(NCCCN1CCC(Cc2ccccc2)CC1)C1CC(=O)N(C2CCCC2)C1 (centres unmarked) | -34.8 |
| CCC/C=C1/CCCOC(C(=O)NCCN2CCOCC2)(C(F)(F)F)C1 (centres unmarked) | -3.23 |
| NCCc1nnc(SCC(=O)Nc2cccc(Cl)c2)o1 | 21.8 |
| CCN(C(=O)c1cccs1)c1nnc(-c2ccncc2)s1 | -10.3 |
| CC(=O)N1CC=C2C(C#N)=C(N)C(C#N)(C#N)[C@H](c3ccoc3)[C@H]2C1 | -15.6 |

| SMILES | hERG current change (%, negative = inhibition) at 10uM [%] |
| --- | --- |
| O=C(Cc1cccs1)Nc1ccccc1 | 16.9 |
| CC1(C(=O)OCC(=O)Nc2ccc3ccccc3c2)CC1(Cl)Cl.CN(C)C=O (centres unmarked) | 11.2 |
| NCCCC(=O)O | 19.2 |
| CC1CCN(C(=O)COC(=O)c2n[nH]c3ccccc23)CC1 | 5.22 |
| CCCS(=O)(=O)N1CCC(C(=O)NCCCN(CC)c2cccc(C)c2)CC1 | -4.1 |
| COc1ccc(S(=O)(=O)N2CCC(C(=O)Nc3ccc(OC)c(OC)c3)CC2)cc1C | 7.71 |
| CCC(=O)Nc1ccc(C(=O)CSc2nnc(-c3ccc(NS(=O)(=O)CC)cc3)o2)cc1OC | 5.26 |
| c1ccc2c(c1)CCCN2Cc1nnc2n1CCCCC2 | 12 |
| CCCN(CC1CC1)C(=O)COC(=O)c1ccc(CNS(=O)(=O)c2ccc(F)c(Cl)c2)cc1 | 8.34 |
| Cc1cccc(NC(=O)CSCC(=O)N(C)Cc2c(F)cccc2Cl)c1 | -14.4 |
| CCn1c(NCc2c[nH]c3ccccc23)nc2ccccc21 | -18 |
| CCN(c1ccccc1)S(=O)(=O)c1ccc(C(=O)Nc2ccncc2)cc1 | -68.7 |
| COc1cc2c(c(OCC(=O)NC(C)C)c1)C(=O)O[C@@H](C)CCCC(=O)CCCCC2 | -3.96 |
| O=C(CSCc1cc(=O)n2ccsc2n1)Nc1ccc(F)cc1 | 27.1 |
| Cc1ccc(Cn2c(SC(C)C(N)=O)nc3ccccc3c2=O)cc1 (centres unmarked) | -8.84 |
| NC(=O)CCN1CCC(c2nc3ccccc3s2)CC1 | -40.3 |
| Clc1ccc2c(c1)-c1nnc(Br)n1-c1ccccc1S2 | -52.5 |
| COc1ccccc1OCC(=O)O | 11 |
| COCc1ccc(CN2CCC(n3nccc3NC(=O)C(OC)c3ccccc3)CC2)o1 (centres unmarked) | 12.9 |
| Cc1ccc(S(=O)(=O)NCCC(=O)NCC(c2ccc(F)cc2)N2CCOCC2)cc1 (centres unmarked) | -5.84 |
| Cc1nn(C)c(C(=O)NNC(=S)NCc2ccco2)c1Br | 37.4 |
| CC1Cc2cc(/C(O)=C3/C(=O)C(=O)N(CCCn4ccnc4)C3c3cccc([N+](=O)[O-])c3)ccc2O1 (centres unmarked) | 17.4 |
| CCn1c(C)nc2cc(C(=O)NNC(=O)c3ccc(C)cc3)ccc21 | -8.93 |

| SMILES | hERG current change (%, negative = inhibition) at 10uM [%] |
| --- | --- |
| CC(C)(C)C1CCc2nc(NC(=O)Cc3cn4ccsc4n3)sc2C1 (centres unmarked) | -9.53 |
| CC1CCCC(NC(=O)CN2C(=O)COc3ccccc32)C1C (centres unmarked) | 25 |
| Cc1nc2ccc(-c3nc4ccccc4o3)cc2[nH]1 | -3.22 |
| COc1cccc(C(=O)N/N=C(\CC(C)C)c2ccccc2)c1 | 2.94 |
| Cc1ccc(SCC(=O)OC(C)C(=O)NCc2ccccc2)cc1C (centres unmarked) | 1.1 |
| Cc1ccc(NC(=O)CN(C)c2ccc(S(=O)(=O)N3CCN(C)CC3)cn2)cc1 | -3.45 |
| CC(=O)c1cccc(NC(=O)c2noc3c2CCc2ccccc2-3)c1 | 19.1 |
| O=C(CN1C(=O)NC2(CCCCCC2)C1=O)N1CCC(Cc2ccccc2)CC1 | -24.4 |
| N#C/C(=C\c1ccc(-c2ccc([N+](=O)[O-])cc2)o1)C(=O)Nc1nc(-c2cccs2)cs1 | 2.16 |
| CCC1(C(=O)c2ccc(Cl)cc2)C2c3ccccc3OC(=O)C21C(=O)Nc1ccccc1 (centres unmarked) | 6.26 |
| O=C(Cn1nnc(-c2ccccc2)n1)N/N=C/c1cccc([N+](=O)[O-])c1 | -5.78 |
| Nc1nc(Cl)cc(Sc2ccc(F)cc2)n1 | 7.51 |
| c1ccc(-c2ccc(-n3ccnc3)cc2)cc1 | -42.4 |
| Cn1cnnc1SCC(=O)n1c2ccccc2c2ccccc21 | 3.52 |
| COc1ccc(CCNc2ccc(N3C(=O)CC(C)C3=O)cc2[N+](=O)[O-])cc1 (centres unmarked) | 10.6 |
| CC(=O)Nc1ccc(SCC(=O)c2cc(C)n(CC(F)(F)F)c2C)cc1 | 6.69 |
| COc1ccccc1N=Nc1c(C)noc1C | 10.6 |
| CCn1c(CNc2ccc(Cl)cc2)nnc1SCC#N | 5.25 |
| CCCCn1c(C)c(C(=O)O)c2cc(OC)ccc21 | 1.59 |
| CNC(=O)C(=O)Nc1ccc2c(c1)N(S(=O)(=O)c1cccs1)CCC2 | -29.4 |
